From PubChem BioAssay AID463173 (ICCB-Longwood Screening Facility, Harvard Medical School, 2010)
Among all 52,000 compounds or so, about 4,300 (8.3%) were called active. No stated cut-off is given here; in the data, active means survival mostly below about 52% (no sharp cut-off); inactive means mostly above about 56%. The list shows a part of the results.

system: DeltatarO mutant; assay: S. aureus survival, RN4220 and DeltatarO strains – OD600, teichoic acid synthesis inhibitors, primary screen (AID 463173); conditions: S. aureus RN4220 wild type/DeltatarO growth, OD600, 18 h, hits give low values, screened at 18.75 µg/mL (by protocol)

Row | SMILES | survival
1 | CS(=O)(=O)Nc1ccc(-c2nc3ccccc3s2)cc1 | inactive: 48%
2 | COc1ccc(NC(=O)c2cccn2-c2nnc(N3CCCCC3)s2)c(OC)c1 | inactive: 98%
3 | CC(NS(=O)(=O)c1ccc(Br)cc1)C(=O)NCc1ccco1 (centres undefined) | inactive: 110%
4 | CCOC(=O)COc1cc(C)c(Cl)cc1C(=O)c1ccn2nc(-c3ccc(OC)cc3)cc2n1 | inactive: 92%
5 | COc1cc(OC)c(NC(=O)CC(C)S(=O)(=O)c2ccc3c(c2)NC(=O)CO3)cc1Cl (centres undefined) | inactive: 89%
6 | CCn1cc(S(=O)(=O)c2ccc(OC)cc2)c(=O)c2cc(F)c(N3CCCCCC3)cc21 | inactive: 84%
7 | COc1ccc(S(=O)(=O)NCCc2csc(-c3cccc(F)c3)n2)cc1OC | inactive: 80%
8 | CCOc1ccc(/C=C/C(=O)Nc2sc3c(c2C(=O)OC)CCCC3)cc1 | inactive: 110%
9 | COc1ccc(-c2nn(-c3ccc(C)c(Cl)c3)c3c2cnc2cc(OC)c(OC)cc23)cc1 | inactive: 94%
10 | CCOc1ccc2[nH]c(=O)c(CN(CC3COCCO3)C(=O)C3CC3)cc2c1 (centres undefined) | inactive: 86%
11 | CCOc1cccc(CNC(=O)c2ccc(N3CCCC3)c(NC(=O)Nc3ccccc3CC)c2)c1 | inactive: 71%
12 | CCOC(=O)c1c(C)[nH]c(C)c1S(=O)(=O)N(C)CC(=O)NCc1ccc(C)cc1 | inactive: 70%
13 | CC(C)c1ccc(NC(=O)Cc2ccc(NC(=O)N3CCCCc4ccccc43)cc2)cc1 | inactive: 94%
14 | COc1ccc(C2CC(=O)c3cc(-c4nc(-c5ccc(C)cc5)cs4)c(=O)[nH]c3C2)cc1 (centres undefined) | inactive: 76%
15 | CCC1CN(C(=O)NCc2ccc(F)cc2)c2cc(Cl)ccc2O1 (centres undefined) | active: 39%
16 | CCOc1ccc2nc(NCCCNC(=O)c3cc(OC)c(OC)c(OC)c3)c(C#N)cc2c1 | inactive: 76%
17 | CCCCOc1ccc(CNC(=O)CN2C(=O)CCn3nc(-c4cn(C)c5ccccc45)cc32)cc1 | inactive: 77%
18 | COc1ccc(NC(=O)C2CCCN(S(=O)(=O)c3c(C)[nH]c(=O)[nH]c3=O)C2)cc1 (centres undefined) | inactive: 138%
19 | CCOc1ccc(NC(=O)CSc2nc3ccsc3c(=O)n2CC)cc1 | inactive: 89%
20 | CCN(CC)C(=O)c1ccc2c(c1)N(Cc1ccccc1F)C(=O)c1ccccc1S2=O (centres undefined) | inactive: 125%
21 | Cc1ccc2sc(NC(=O)/C=C/C(=O)O)nc2c1 | inactive: 102%
22 | Cc1ccc(NC(=O)Cn2c(=O)nc(-c3ccccc3)c3ccccc32)cc1 | inactive: 73%

Row | SMILES | survival
23 | Cc1cccc(C(=O)n2nc(-c3cccnc3)nc2NCc2ccc(F)cc2)c1 | inactive: 54%
24 | CCCCOc1ccc(CNC(=O)c2cnc3sc(N4CCCCCC4)nn3c2=O)cc1 | inactive: 86%
25 | CCCCNC(=O)CCn1nc(-c2ccc(Cl)cc2)c2ccccc2c1=O | inactive: 53%
26 | CC(C)Cc1nnc(NC(=O)CCCN2C(=O)CCC2=O)s1 | inactive: 90%
27 | CCN1CCN(c2nc3c(S(=O)(=O)c4ccc(C)cc4)nnn3c3ccsc23)CC1 | inactive: 65%
28 | CCN(CC)S(=O)(=O)c1ccc2c(c1)N(CC(=O)NCCc1ccccc1)C(=O)CO2 | inactive: 76%
29 | CCC(Oc1ccccc1)C(=O)Nc1cc(-c2ccccc2F)nn1-c1ccccc1 (centres undefined) | inactive: 122%
30 | CCC(CC)C(=O)Nc1nnc(C(C)(C)C)s1 | inactive: 95%
31 | CCOc1ccc2nc(N3CCCC(C(=O)Nc4ccc(CC)cc4)C3)sc2c1 (centres undefined) | inactive: 47%
32 | CCc1ccc2oc(-c3cccc(NC(=O)COc4ccccc4Cl)c3)nc2c1 | inactive: 57%
33 | COc1cccc(NC(=O)Nc2ccc3snnc3c2)c1 | inactive: 68%
34 | COc1ccc(-c2cc(C)no2)cc1S(=O)(=O)N1CCCC(C)C1 (centres undefined) | inactive: 81%
35 | Cn1c(=O)[nH]c(=O)c2c1nc(CN1CCN(c3ccccc3)CC1)n2Cc1c(F)cccc1Cl | inactive: 83%
36 | Cc1cccc(NC(=O)c2ccc3[nH]c(C)cc(=O)c3c2)c1 | inactive: 100%
37 | CC(C)(C)c1ccc(C(=O)Nc2ccc(NC(=O)c3ccc(Cl)c(Cl)c3)cc2)cc1 | inactive: 155%
38 | CCC(=O)N1CCc2cc(S(=O)(=O)NC(Cc3ccccc3)C(=O)NCc3ccccc3OC)ccc21 (centres undefined) | inactive: 66%
39 | CSc1cccc(Nc2cc(C(=O)NC3CCCCC3)c3ccccc3n2)c1 | inactive: 111%
40 | COc1ccc(C)cc1NC(=O)Cn1c(=O)oc2cc(S(=O)(=O)N3CCCCCC3)ccc21 | inactive: 71%
41 | CCc1ccc2occ(CC(=O)Nc3c(C(=O)c4ccc(F)cc4)oc4ccccc34)c2c1 | inactive: 67%
42 | CCCCCCSc1nc(N)c2c3c(sc2n1)CCCC3C (centres undefined) | active: -7%
43 | CC(C)(C)C1CCc2c(sc(NC(=O)c3cc(-c4ccc(F)cc4)on3)c2C#N)C1 (centres undefined) | inactive: 131%
44 | O=C(NC1CCCC1)C(c1cccnc1)N(CCc1ccccc1)C(=O)c1ccco1 (centres undefined) | inactive: 80%
